The record followed here is PMC7794610.

Sequences of proteins named here, by UniProt entry; tags and fusion partners are left off. Residues count along the entry.
UniProt P52164: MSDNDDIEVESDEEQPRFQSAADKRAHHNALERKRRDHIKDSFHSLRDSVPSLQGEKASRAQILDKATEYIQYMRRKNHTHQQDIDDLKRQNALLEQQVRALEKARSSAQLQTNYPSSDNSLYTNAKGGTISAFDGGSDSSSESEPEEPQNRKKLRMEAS
UniProt Q04206: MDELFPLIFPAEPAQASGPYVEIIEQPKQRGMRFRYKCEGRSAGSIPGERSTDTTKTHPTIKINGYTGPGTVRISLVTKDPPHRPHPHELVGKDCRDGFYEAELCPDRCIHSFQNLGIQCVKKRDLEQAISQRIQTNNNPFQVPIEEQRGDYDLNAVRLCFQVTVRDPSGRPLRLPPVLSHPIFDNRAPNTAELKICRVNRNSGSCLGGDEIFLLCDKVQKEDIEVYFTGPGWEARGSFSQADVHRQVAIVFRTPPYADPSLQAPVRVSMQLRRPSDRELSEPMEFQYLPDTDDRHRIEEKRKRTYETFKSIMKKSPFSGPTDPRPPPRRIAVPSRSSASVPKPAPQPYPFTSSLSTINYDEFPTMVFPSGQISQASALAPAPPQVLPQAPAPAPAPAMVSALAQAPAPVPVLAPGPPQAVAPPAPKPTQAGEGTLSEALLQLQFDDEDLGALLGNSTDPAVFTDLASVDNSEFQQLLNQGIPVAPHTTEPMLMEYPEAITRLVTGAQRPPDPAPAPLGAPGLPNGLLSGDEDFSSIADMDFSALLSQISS
UniProt P19838, residues 1-433: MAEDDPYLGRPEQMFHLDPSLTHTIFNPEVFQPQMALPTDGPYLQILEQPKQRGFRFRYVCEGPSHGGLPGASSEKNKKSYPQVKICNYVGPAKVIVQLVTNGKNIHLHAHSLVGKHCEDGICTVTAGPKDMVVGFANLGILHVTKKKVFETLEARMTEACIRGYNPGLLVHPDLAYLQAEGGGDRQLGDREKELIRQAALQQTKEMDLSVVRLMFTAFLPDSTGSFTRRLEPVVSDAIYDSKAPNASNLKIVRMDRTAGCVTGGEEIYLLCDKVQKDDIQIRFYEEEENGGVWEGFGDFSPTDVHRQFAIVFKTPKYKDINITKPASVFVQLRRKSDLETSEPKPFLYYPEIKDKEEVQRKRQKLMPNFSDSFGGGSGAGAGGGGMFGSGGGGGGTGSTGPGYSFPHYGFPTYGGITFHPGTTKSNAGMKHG
UniProt P61244: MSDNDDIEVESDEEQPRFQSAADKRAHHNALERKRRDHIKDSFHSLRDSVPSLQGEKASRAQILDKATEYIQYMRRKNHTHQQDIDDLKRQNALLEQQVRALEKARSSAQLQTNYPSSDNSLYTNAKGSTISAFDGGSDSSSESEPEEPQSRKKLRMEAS
UniProt P09416: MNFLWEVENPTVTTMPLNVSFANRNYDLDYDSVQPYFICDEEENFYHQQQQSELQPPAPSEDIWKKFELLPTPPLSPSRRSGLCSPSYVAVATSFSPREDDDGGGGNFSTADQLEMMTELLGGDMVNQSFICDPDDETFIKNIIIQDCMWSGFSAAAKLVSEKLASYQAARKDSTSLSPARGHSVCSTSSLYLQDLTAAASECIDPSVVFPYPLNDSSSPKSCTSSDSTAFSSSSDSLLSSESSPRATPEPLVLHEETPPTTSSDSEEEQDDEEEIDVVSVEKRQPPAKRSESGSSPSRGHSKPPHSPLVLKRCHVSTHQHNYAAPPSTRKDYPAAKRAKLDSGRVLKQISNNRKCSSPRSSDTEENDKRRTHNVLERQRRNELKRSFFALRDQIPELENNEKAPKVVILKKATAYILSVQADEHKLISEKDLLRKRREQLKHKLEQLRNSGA
UniProt P15307: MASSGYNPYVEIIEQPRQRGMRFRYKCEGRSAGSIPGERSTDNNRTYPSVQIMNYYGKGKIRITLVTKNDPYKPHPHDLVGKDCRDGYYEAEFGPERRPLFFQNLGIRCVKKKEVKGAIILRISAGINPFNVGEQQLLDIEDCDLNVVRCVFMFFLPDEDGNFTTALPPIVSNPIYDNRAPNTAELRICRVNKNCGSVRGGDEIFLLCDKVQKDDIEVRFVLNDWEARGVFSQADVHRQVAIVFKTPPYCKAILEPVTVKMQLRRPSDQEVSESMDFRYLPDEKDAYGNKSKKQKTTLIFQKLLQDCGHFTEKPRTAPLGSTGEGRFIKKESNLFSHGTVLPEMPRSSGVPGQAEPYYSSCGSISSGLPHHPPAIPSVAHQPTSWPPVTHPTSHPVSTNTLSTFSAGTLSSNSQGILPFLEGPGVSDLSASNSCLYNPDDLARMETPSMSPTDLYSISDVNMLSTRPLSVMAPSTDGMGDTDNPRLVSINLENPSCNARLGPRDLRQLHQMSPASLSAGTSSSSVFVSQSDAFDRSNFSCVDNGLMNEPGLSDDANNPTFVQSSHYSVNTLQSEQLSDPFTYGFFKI

These are yes or no findings as the source states them, for the method shown. In cells and extracts the contact can be indirect. Some results given as binding are weak or reduced against the parent protein; the word gives no strength. For part of these data: Where a sequence is shown, tags or fusion partners need not be part of it.

In assay [1] the target is T1, MNT (human, endogenous) (human (endogenous in LoVo)) (UniProt Q99583).
T1 sequence: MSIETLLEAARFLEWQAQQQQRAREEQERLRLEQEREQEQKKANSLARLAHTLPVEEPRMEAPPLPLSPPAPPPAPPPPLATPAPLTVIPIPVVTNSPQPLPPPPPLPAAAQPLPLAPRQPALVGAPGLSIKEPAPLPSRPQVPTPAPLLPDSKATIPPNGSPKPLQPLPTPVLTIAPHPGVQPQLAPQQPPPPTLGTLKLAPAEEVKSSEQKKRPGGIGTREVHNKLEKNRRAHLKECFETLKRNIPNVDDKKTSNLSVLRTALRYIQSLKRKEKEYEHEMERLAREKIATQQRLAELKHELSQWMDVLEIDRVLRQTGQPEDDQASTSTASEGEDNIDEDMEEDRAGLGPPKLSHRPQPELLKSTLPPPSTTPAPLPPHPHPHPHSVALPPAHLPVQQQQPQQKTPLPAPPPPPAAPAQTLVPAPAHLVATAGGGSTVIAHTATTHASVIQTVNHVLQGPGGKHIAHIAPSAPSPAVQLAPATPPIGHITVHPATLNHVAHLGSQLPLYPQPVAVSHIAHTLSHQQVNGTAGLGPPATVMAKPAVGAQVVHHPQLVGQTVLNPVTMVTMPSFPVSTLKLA
The assay can be described thus: co-IP; endogenous proteins, human LoVo lysate in mild hypotonic buffer (10 mM HEPES pH 7, 10 mM KCl, 0.1% NP-40); IP with anti-MNT (two antibodies), anti-REL, anti-p65, anti-p105/p50, IgG as control; immunoblot. For orientation: In western blotting, separated proteins are transferred to a membrane and probed.

Assay [2] concerns the target MAX (rat, endogenous) (rat (endogenous in C6)) (UniProt P52164). Nature of the assay: proximity ligation; Duolink in situ PLA in C6 cells 48 h after transfection with WT MNT-HA and REL-flag vectors; antibody pairs anti-MNT/anti-REL, anti-MYC/anti-MAX (positive control).
Assay [3] addresses T2, MNT (mouse, endogenous) (mouse (endogenous in Neuro-2a)) (UniProt O08789).
T2 sequence: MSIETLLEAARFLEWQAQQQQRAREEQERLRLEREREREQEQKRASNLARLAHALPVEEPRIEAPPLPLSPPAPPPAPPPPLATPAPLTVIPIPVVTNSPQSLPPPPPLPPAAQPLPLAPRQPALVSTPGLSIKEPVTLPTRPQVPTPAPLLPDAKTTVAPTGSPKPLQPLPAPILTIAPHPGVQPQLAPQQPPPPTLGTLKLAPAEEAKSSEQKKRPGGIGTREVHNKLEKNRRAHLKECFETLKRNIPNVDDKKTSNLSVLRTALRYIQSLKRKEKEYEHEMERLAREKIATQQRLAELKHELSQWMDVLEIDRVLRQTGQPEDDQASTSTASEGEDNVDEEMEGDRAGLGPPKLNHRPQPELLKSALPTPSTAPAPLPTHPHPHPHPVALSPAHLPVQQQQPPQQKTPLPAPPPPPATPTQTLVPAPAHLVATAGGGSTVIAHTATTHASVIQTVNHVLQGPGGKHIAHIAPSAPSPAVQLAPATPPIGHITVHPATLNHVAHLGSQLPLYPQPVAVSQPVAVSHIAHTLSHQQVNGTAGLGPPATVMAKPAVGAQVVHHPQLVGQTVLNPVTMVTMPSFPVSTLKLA
Nature of the assay: co-IP; endogenous proteins, mouse Neuro-2a lysate; IP with anti-MNT; immunoblot.

The next assay addresses T3, ΔNt1 MNT-HA (mouse) (UniProt O08789).
T3 sequence: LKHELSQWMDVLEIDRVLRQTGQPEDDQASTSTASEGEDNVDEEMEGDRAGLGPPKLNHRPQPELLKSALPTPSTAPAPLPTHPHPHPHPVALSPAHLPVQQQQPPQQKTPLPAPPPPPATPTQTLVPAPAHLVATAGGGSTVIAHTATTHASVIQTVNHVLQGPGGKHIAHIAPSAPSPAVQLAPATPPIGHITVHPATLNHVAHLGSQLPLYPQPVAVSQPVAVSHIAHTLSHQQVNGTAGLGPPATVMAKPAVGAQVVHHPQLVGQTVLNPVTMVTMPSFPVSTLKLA
Nature of the assay: co-IP; C6 lysates 48 h after transfection with REL-flag (mouse) and MNT-HA deletion constructs (mouse); IP with anti-HA, IgG as control; immunoblot of HA and REL.

The target of the next assay is T4, ΔNt2 MNT-HA (mouse) (UniProt O08789).
T4 sequence: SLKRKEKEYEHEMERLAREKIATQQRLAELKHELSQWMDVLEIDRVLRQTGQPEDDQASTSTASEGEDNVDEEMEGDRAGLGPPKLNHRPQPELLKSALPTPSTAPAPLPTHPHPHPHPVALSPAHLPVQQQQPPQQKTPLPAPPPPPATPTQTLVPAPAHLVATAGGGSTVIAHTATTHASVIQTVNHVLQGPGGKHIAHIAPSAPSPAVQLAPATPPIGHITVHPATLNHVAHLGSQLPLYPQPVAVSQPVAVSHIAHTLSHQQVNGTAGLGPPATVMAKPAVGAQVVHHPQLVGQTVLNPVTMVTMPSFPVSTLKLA
The assay is described as above.

The target in the next assay is T5, mouse WT MNT-HA (mouse) (UniProt O08789).
T5 sequence: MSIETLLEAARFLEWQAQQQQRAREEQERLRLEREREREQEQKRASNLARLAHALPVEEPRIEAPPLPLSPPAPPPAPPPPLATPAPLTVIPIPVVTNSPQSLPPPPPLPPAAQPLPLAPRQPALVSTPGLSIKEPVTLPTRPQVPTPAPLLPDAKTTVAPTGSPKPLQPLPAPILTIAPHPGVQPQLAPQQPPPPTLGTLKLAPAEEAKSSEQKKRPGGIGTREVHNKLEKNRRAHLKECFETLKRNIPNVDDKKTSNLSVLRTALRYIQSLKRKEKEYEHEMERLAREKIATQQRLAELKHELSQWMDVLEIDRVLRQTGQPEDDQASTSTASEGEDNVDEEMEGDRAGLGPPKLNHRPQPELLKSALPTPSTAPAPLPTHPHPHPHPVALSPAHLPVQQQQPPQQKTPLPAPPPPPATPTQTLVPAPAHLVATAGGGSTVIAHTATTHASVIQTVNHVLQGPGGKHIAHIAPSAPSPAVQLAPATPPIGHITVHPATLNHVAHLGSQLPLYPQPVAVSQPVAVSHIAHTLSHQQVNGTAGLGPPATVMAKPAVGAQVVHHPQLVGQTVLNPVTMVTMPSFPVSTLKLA
The assay can be described thus: proximity ligation; Duolink in situ PLA in C6 cells 48 h after transfection with WT MNT-HA and REL-flag vectors; antibody pairs anti-MNT/anti-REL, anti-MYC/anti-MAX (positive control).

Assay [4] deals with p65 (human, endogenous) (human (endogenous in LoVo)) (UniProt Q04206). The assay can be described thus: proximity ligation; Duolink in situ PLA in untransfected LoVo cells; antibody pairs anti-MNT/anti-REL, anti-p65/anti-REL (positive control).
The target in assay [5] is p50 (human, endogenous) (human (endogenous in LoVo)) (UniProt P19838). Nature of the assay: co-IP; endogenous proteins, human LoVo lysate in mild hypotonic buffer (10 mM HEPES pH 7, 10 mM KCl, 0.1% NP-40); IP with anti-MNT (two antibodies), anti-REL, anti-p65, anti-p105/p50, IgG as control; immunoblot.
Assay [6] addresses p65 (human, endogenous) (human (endogenous in LoVo)) (UniProt Q04206). The assay is described as above.
Assay [7] has as its target T6, c-REL (human, endogenous) (human (endogenous in LoVo)), Q04864.
T6 chain: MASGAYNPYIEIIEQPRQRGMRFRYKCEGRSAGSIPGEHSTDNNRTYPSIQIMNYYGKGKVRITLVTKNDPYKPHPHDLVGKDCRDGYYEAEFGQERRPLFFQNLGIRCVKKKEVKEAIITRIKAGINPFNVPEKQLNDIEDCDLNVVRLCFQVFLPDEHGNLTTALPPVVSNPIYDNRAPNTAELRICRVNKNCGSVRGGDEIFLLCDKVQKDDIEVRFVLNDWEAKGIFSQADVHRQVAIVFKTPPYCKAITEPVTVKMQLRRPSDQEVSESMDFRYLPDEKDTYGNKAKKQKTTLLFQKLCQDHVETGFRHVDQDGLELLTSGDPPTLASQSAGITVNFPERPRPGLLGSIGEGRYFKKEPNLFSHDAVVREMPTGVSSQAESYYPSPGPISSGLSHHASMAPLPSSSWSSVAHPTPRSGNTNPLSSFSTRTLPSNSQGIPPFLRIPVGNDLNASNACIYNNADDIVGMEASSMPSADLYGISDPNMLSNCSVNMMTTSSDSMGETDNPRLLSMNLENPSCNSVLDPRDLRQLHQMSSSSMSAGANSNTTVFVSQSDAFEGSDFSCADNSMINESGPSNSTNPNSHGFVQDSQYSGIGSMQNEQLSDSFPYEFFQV
The assay can be described thus: co-IP; LoVo lysates 72 h after infection with shRNAs against MNT (shMNT) or scrambled shRNA (shSCR); IP with anti-REL, IgG as control; immunoblot of REL and IκBα. Particulars: remark: other sources report otherwise.

In the case of “MAX (human, endogenous) (from UniProt P61244 1-160)”, in [1], the binding result is on record as “binds”. In the case of “MYC (rat, endogenous) (from UniProt P09416 1-453)”, the binding result in assay [2] is listed as “binds”.

For “c-REL (mouse, endogenous) (from UniProt P15307 1-587)”, the binding entry in assay [3] was “binds”.

As for “mouse c-Rel cFlag (from UniProt P15307 1-587)”, the binding result in the assay with ΔNt1 MNT-HA (mouse), with ΔNt2 MNT-HA (mouse) and with mouse WT MNT-HA (mouse) was “binds” in each case.

Regarding “p50 (human, endogenous) (from UniProt P19838 1-433)”, in assay [1], the binding result was “no binding”. Consider “p65 (human, endogenous) (from UniProt Q04206 1-551)”, for which, in assay [1], the binding entry is given as “no binding”.

B1: c-REL (human, endogenous) (protein, UniProt Q04864 1-619)
chain: MASGAYNPYIEIIEQPRQRGMRFRYKCEGRSAGSIPGEHSTDNNRTYPSIQIMNYYGKGKVRITLVTKNDPYKPHPHDLVGKDCRDGYYEAEFGQERRPLFFQNLGIRCVKKKEVKEAIITRIKAGINPFNVPEKQLNDIEDCDLNVVRLCFQVFLPDEHGNLTTALPPVVSNPIYDNRAPNTAELRICRVNKNCGSVRGGDEIFLLCDKVQKDDIEVRFVLNDWEAKGIFSQADVHRQVAIVFKTPPYCKAITEPVTVKMQLRRPSDQEVSESMDFRYLPDEKDTYGNKAKKQKTTLLFQKLCQDHVETGFRHVDQDGLELLTSGDPPTLASQSAGITVNFPERPRPGLLGSIGEGRYFKKEPNLFSHDAVVREMPTGVSSQAESYYPSPGPISSGLSHHASMAPLPSSSWSSVAHPTPRSGNTNPLSSFSTRTLPSNSQGIPPFLRIPVGNDLNASNACIYNNADDIVGMEASSMPSADLYGISDPNMLSNCSVNMMTTSSDSMGETDNPRLLSMNLENPSCNSVLDPRDLRQLHQMSSSSMSAGANSNTTVFVSQSDAFEGSDFSCADNSMINESGPSNSTNPNSHGFVQDSQYSGIGSMQNEQLSDSFPYEFFQV
Regarding B1, the binding entry in assay [4], in assay [5] and in assay [6] was “binds” in each case.

B2: IκBα (human, endogenous), P25963 1-317 (protein)
chain: MFQAAERPQEWAMEGPRDGLKKERLLDDRHDSGLDSMKDEEYEQMVKELQEIRLEPQEVPRGSEPWKQQLTEDGDSFLHLAIIHEEKALTMEVIRQVKGDLAFLNFQNNLQQTPLHLAVITNQPEIAEALLGAGCDPELRDFRGNTPLHLACEQGCLASVGVLTQSCTTPHLHSILKATNYNGHTCLHLASIHGYLGIVELLVSLGADVNAQEPCNGRTALHLAVDLQNPDLVSLLLKCGADVNRVTYQGYSPYQLTWGRPSTRIQQQLGQLTLENLQMLPESEDEESYDTESEFTEFTEDELPYDDCVFGGQRLTL
With B2, the binding result in [7] is given as “binds”.
